Test results from PMC5008010.
No constants are given. Whether binding was seen depends on the method and setting. In cells and extracts the contact can be indirect. Some results given as binding are weak or reduced against the parent protein; the word gives no strength. Tags and fused reporters may be left off the sequences shown.

Chains of the proteins cited; added tags and fusions are not shown. Residues count along the entry.
UniProt P20700: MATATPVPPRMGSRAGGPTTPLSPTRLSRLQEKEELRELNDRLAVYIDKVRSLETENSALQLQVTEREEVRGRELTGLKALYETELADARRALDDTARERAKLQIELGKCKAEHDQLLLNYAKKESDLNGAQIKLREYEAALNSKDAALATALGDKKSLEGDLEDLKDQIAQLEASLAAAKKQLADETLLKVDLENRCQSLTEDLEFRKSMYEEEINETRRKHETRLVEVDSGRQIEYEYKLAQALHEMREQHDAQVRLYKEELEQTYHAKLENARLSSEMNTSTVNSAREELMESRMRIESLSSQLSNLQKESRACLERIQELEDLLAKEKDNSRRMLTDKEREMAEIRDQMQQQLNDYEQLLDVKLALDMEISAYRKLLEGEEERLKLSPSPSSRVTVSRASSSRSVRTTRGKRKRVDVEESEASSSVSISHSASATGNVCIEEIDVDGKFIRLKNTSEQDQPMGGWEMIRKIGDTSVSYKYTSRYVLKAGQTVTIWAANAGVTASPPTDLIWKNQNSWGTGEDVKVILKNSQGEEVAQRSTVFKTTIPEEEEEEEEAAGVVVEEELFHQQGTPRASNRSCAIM
UniProt P02545, residues 1-646: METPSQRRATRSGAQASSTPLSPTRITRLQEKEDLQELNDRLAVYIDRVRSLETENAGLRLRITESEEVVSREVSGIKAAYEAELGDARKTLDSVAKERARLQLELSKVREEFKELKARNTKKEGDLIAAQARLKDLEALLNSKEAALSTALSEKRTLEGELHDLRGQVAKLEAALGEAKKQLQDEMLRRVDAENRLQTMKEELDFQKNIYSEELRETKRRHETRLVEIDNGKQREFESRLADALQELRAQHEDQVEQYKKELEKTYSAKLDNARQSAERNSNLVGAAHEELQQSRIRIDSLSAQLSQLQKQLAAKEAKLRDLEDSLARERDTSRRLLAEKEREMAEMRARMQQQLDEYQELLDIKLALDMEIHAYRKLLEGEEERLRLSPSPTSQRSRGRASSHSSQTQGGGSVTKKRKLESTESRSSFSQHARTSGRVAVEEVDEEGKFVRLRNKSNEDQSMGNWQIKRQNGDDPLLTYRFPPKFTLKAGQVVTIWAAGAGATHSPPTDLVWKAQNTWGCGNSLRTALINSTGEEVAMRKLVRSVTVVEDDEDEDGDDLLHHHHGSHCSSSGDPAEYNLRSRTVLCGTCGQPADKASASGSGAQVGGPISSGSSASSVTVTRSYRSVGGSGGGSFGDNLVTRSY

What was measured:
[1] = biological target: T1, AKTIP-FLAG fusion protein (UniProt Q9H8T0); assay: co-IP; anti-FLAG antibody, extracts of 293T cells expressing AKTIP-FLAG; Western blotting for lamin B1
T1 sequence: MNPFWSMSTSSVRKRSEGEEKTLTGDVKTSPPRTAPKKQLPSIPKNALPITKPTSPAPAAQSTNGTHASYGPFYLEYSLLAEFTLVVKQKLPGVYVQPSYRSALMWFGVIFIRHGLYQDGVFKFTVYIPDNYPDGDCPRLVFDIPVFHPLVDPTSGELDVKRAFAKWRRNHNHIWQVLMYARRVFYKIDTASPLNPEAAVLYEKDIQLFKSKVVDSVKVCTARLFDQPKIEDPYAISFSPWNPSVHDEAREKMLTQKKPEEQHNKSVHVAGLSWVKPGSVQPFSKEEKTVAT

AKTIP-GST = biological target: T2, AKTIP-GST (UniProt Q9H8T0); assay: pull-down; purified AKTIP-GST, AKTIP-GST truncations or GST alone used to capture proteins from 293T cell extracts; Western blotting; only the target purified
T2 sequence: T1 sequence

[2] = biological target: T3, AKTIP-GST truncation, C-terminus consisting of 2 α-helices and a distal disordered portion (aa 190-292) (UniProt Q9H8T0); assay: as above
T3 sequence: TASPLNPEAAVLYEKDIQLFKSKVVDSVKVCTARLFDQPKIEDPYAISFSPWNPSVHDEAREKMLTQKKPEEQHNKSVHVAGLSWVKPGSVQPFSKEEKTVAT

[3] = biological target: T4, AKTIP-GST truncation, central region comprising the UEV portion (aa 70-189) (UniProt Q9H8T0); assay: as above
T4 sequence: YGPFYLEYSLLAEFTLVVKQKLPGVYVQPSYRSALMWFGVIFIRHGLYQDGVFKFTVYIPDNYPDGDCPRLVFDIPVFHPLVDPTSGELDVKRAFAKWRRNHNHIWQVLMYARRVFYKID

[4] = biological target: T5, AKTIP-GST truncation, N-terminal disordered region (aa 1-70) (UniProt Q9H8T0); assay: as above
T5 sequence: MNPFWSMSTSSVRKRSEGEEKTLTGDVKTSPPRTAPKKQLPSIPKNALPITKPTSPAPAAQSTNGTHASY

## lamin B1 (from UniProt P20700 1-586)
[1]
  binding: binds
AKTIP-GST
  binding: binds
[2]
  binding: no binding
[3]
  binding: binds
[4]
  binding: no binding

## lamin A/C (from UniProt P02545 1-646)
AKTIP-GST
  binding: binds
[2]
  binding: no binding
[3]
  binding: binds
[4]
  binding: no binding

B1: matrin 3 (protein, UniProt P43243 1-847)
chain: MSKSFQQSSLSRDSQGHGRDLSAAGIGLLAAATQSLSMPASLGRMNQGTARLASLMNLGMSSSLNQQGAHSALSSASTSSHNLQSIFNIGSRGPLPLSSQHRGDADQASNILASFGLSARDLDELSRYPEDKITPENLPQILLQLKRRRTEEGPTLSYGRDGRSATREPPYRVPRDDWEEKRHFRRDSFDDRGPSLNPVLDYDHGSRSQESGYYDRMDYEDDRLRDGERCRDDSFFGETSHNYHKFDSEYERMGRGPGPLQERSLFEKKRGAPPSSNIEDFHGLLPKGYPHLCSICDLPVHSNKEWSQHINGASHSRRCQLLLEIYPEWNPDNDTGHTMGDPFMLQQSTNPAPGILGPPPPSFHLGGPAVGPRGNLGAGNGNLQGPRHMQKGRVETSRVVHIMDFQRGKNLRYQLLQLVEPFGVISNHLILNKINEAFIEMATTEDAQAAVDYYTTTPALVFGKPVRVHLSQKYKRIKKPEGKPDQKFDQKQELGRVIHLSNLPHSGYSDSAVLKLAEPYGKIKNYILMRMKSQAFIEMETREDAMAMVDHCLKKALWFQGRCVKVDLSEKYKKLVLRIPNRGIDLLKKDKSRKRSYSPDGKESPSDKKSKTDGSQKTESSTEGKEQEEKSGEDGEKDTKDDQTEQEPNMLLESEDELLVDEEEAAALLESGSSVGDETDLANLGDVASDGKKEPSDKAVKKDGSASAAAKKKLKKVDKIEELDQENEAALENGIKNEENTEPGAESSENADDPNKDTSENADGQSDENKDDYTIPDEYRIGPYQPNVPVGIDYVIPKTGFYCKLCSLFYTNEEVAKNTHCSSLPHYQKLKKFLNKLAEERRQKKET
AKTIP-GST
  binding: binds
[2]
  binding: no binding
[3]
  binding: binds
[4]
  binding: no binding
